According to the supplement of paper PMC3334620:
Over roughly 33,000 sequences, “E-score (-0.5 to 0.5)” has its median near -0.012; the highest 2% begin near 0.29. This is one part of the list.

The sequences below were run against T1, Ybr033w (UniProt P38073) (assay: PBM E-score (8-mer binding enrichment) (E-score (-0.5 to 0.5)); higher = stronger / more preferred TF binding; most listed sequences are background and not binding sites). Settings: protein concentration: 200 nM; construct: GST-full length.
T1 sequence: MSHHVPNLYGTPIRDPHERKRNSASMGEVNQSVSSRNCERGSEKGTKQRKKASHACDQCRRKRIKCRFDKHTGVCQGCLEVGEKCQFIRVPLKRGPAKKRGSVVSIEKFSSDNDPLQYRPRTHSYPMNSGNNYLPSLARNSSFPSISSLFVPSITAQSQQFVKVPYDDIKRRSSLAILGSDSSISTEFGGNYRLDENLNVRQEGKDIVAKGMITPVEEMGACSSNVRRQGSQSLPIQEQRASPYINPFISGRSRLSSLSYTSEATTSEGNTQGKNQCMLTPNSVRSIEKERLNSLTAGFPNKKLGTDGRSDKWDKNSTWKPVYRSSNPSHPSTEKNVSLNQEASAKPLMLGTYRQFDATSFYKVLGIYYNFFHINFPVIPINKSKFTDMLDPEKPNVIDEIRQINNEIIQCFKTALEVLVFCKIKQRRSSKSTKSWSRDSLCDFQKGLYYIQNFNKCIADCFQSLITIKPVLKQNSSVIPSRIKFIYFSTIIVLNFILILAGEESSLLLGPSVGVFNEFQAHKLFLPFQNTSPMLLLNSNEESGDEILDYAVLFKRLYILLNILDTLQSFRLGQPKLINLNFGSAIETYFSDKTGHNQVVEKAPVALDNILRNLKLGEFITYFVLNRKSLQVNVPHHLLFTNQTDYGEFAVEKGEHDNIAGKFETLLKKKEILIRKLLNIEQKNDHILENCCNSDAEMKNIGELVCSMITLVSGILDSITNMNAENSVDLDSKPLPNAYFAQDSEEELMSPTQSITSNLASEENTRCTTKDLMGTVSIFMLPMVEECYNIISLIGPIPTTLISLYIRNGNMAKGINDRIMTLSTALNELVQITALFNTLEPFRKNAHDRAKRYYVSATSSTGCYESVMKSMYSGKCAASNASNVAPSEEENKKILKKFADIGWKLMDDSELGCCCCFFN
How it was run: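 Masliner-normalised scans of fluorescent anti-GST signal were the basis for scoring. That signal came from GST-tagged yeast transcription factors applied at about 100-200 nM to double-stranded universal all-10-mer Agilent arrays on fresh or once-stripped slides. Each ungapped eight-base word, pooled with its reverse complement, received an E-score from the Universal PBM Analysis Suite.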
With CTGCGTAA the “PBM E-score” value was 0.0284. With ACCAATAA the “PBM E-score” value was 0.107. With CACCCAAA the “PBM E-score” value was 0.0595. CTTTTGCA was tested, and the “PBM E-score” value was 0.127. AAATTCAG was tested, and the “PBM E-score” value was 0.204. For CCATAGGA, the “PBM E-score” value was -0.0978. In the case of TCCAGGAA, the “PBM E-score” value is reported as 0.196. ACATTAAT was tested, and the “PBM E-score” value was 0.235. With CTTCAATC the “PBM E-score” value was 0.0931. With CGGAGGGC the “PBM E-score” value was -0.243. With ATAACCCA the “PBM E-score” value was 0.128. GATTGTCA was tested, and the “PBM E-score” value was 0.0585. CCGTTGGA was tested, and the “PBM E-score” value was -0.211. AGAGAGAG was tested, and the “PBM E-score” value was -0.0462. With AACCTAGC the “PBM E-score” value was 0.0295. For TGCGTCAA, the “PBM E-score” value was -0.132. With CAATTCCC the “PBM E-score” value was 0.0996. In the case of CATTGCAC, the “PBM E-score” value is reported as 0.106. In the case of TCCGACGA, the “PBM E-score” value is reported as 0.14. In the case of CAAATAGA, the “PBM E-score” value is reported as 0.241. CTCCTAGA was tested, and the “PBM E-score” value was -0.0672. AGAACCCT was tested, and the “PBM E-score” value was -0.0498. AGCTGTTA was tested, and the “PBM E-score” value was 0.101. With GTACAAGA the “PBM E-score” value was -0.0515. In the case of AAGCTGTA, the “PBM E-score” value is reported as 0.236. With ATTGAGCA the “PBM E-score” value was -0.0103. With ACCCTCGA the “PBM E-score” value was -0.193. For AAAATGAC, the “PBM E-score” value was 0.15. ACCGTCGC was tested, and the “PBM E-score” value was -0.169. In the case of ACGCATAC, the “PBM E-score” value is reported as 0.00155. With CGCAGTCA the “PBM E-score” value was -0.103. ACATGACT was tested, and the “PBM E-score” value was -0.129. For ACCTGTGG, the “PBM E-score” value was -0.228. In the case of CTATTGCA, the “PBM E-score” value is reported as 0.148. CTCAGGAG was tested, and the “PBM E-score” value was -0.106. ACGGCTGC was tested, and the “PBM E-score” value was -0.249. In the case of CACCAGTG, the “PBM E-score” value is reported as -0.134. CCATCGAA was tested, and the “PBM E-score” value was -0.0709. With CAGACTAG the “PBM E-score” value was -0.17. In the case of AGTTTCAC, the “PBM E-score” value is reported as 0.133. CGCTGGAC was tested, and the “PBM E-score” value was -0.0231. With CAGTTCCC the “PBM E-score” value was -0.0612. ACTTCCGC was tested, and the “PBM E-score” value was 0.0114. With AGAGTGGG the “PBM E-score” value was -0.154. For ATAATCGA, the “PBM E-score” value was 0.205. For CAGTTGGG, the “PBM E-score” value was -0.25. AGCCGTCG was tested, and the “PBM E-score” value was 0.015. For AGGGAAGA, the “PBM E-score” value was 0.0808. For ACTGCGCG, the “PBM E-score” value was -0.0114. With AAATACTG the “PBM E-score” value was 0.172. In the case of CACGGAGG, the “PBM E-score” value is reported as -0.17. For CAAGTATA, the “PBM E-score” value was 0.138. With CATACGGG the “PBM E-score” value was -0.246. In the case of ATGGCAGC, the “PBM E-score” value is reported as -0.147. In the case of CTCACTGC, the “PBM E-score” value is reported as 0.0232. With AGGAAAAC the “PBM E-score” value was 0.12. TTTAAAAA was tested, and the “PBM E-score” value was 0.149. For GACTATTA, the “PBM E-score” value was 0.208. With ATAACGAT the “PBM E-score” value was 0.0877. With AGGGAATC the “PBM E-score” value was 0.0653. ATGGATAA was tested, and the “PBM E-score” value was 0.259. For CATGTAGG, the “PBM E-score” value was 0.0319. For CTCTGTGA, the “PBM E-score” value was 0.0621. CGTACCAA was tested, and the “PBM E-score” value was 0.169. ACGTGATG was tested, and the “PBM E-score” value was -0.0512. For ACCACGAA, the “PBM E-score” value was 0.0666. For GTGGACGA, the “PBM E-score” value was -0.0473. AAACAGCG was tested, and the “PBM E-score” value was 0.0942. ATCCGAAC was tested, and the “PBM E-score” value was 0.057. AGCTTTCC was tested, and the “PBM E-score” value was -0.0772. For AGAGCCGA, the “PBM E-score” value was -0.0115. AGGTGAGA was tested, and the “PBM E-score” value was 0.126. GGCTATTA was tested, and the “PBM E-score” value was 0.0685. In the case of CTAGTACA, the “PBM E-score” value is reported as 0.14. For GAAGCAAC, the “PBM E-score” value was 0.0192. CGCGGTGA was tested, and the “PBM E-score” value was 0.0155. CCCCCGGA was tested, and the “PBM E-score” value was -0.275. In the case of ACCCTTAT, the “PBM E-score” value is reported as 0.0185. With AAAATTCG the “PBM E-score” value was 0.279. AATCGCGC was tested, and the “PBM E-score” value was 0.00775. In the case of CCATTCCA, the “PBM E-score” value is reported as -0.015. With CTGGGAGC the “PBM E-score” value was -0.3. AGGAGGGC was tested, and the “PBM E-score” value was -0.196. For GGCACCGA, the “PBM E-score” value was -0.0891. For CTGTGGGC, the “PBM E-score” value was -0.143. For CGGAGACA, the “PBM E-score” value was 0.13.
